Results from the supplement of paper PMC8728848.
The other results are listed elsewhere or left out.

Legend:
Test in all cases: glycan array binding signal (z-score within array); higher = stronger binding
Conditions in all cases: glycan notation: IUPAC condensed, linker removed
[1] = molecular target: Neu5Gc(a2-8)Neu5Gc(a2-3)Gal(b1-4)GlcNAc
Outline: (§1)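 Negative Z-scores can be read as non-binding. The Z-score is calculated within each array and then averaged across arrays of one protein sequence at different concentrations or buffers and across linkers. Arrays, 3228 in all, were curated from the Consortium for Functional Glycomics database and kept only where the protein sequence was available.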

[2] = molecular target: Neu5Gc(a2-8)Neu5Gc(a2-3)Gal(b1-4)GlcNAc(b1-3)Gal(b1-4)GlcNAc
Outline: as §1

[3] = molecular target: Neu5Gc(a2-8)Neu5Gc(a2-6)Gal(b1-4)GlcNAc
Outline: as §1

[4] = molecular target: Neu5Gc(b2-6)Gal(b1-4)GlcNAc
Outline: as §1

B1: AAA (Anguilla anguilla), Q7SIC1 (protein)
chain: VIPEGYTQENVAVRGKATQSAQLRGEHAANSEASNAIDGNRDSNFYHGSCTHSSGQANPWWRVDLLQVYTITSVTITNRGDCCGERISGAEINIGQHLASNGVNNPECSVIGSMATGETKTFHCPAPMIGRYVVTYLPTSESLHLCEVEVNVDKPAAA
glycan array binding signal (z-score) [1]: -0.161
glycan array binding signal (z-score) [2]: -0.231
glycan array binding signal (z-score) [3]: -0.197
glycan array binding signal (z-score) [4]: -0.178
